Some of the results follow. Sequences were assembled here from the parent chain. Values near 0.05 are background.
B1: TEV protease; numbered along this chain (parent)
chain: MGESLFKGPRDYNPISSSICHLTNESDGHTTSLYGIGFGPFIITNKHLFRRNNGTLVVQSLHGVFKVKDTTTLQQHLVDGRDMIIIRMPKDFPPFPQKLKFREPQREERICLVTTNFQTKSMSSMVSDTSCTFPSGDGIFWKHWIQTKDGQCGSPLVSTRDGFIVGIHSASNFTNTNNYFTSVPKNFMELLTNQEAQQWVSGWRLNADSVLWGGHKVFMVKPEEPFQPVKEATQL

Variants of: B1
Experiment: raw area under fraction-flipped curve 0-4 h after induction (AUC4h, not background-subtracted), DNA-recorder readout of cleavage of the substrate (dimensionless); higher = more cleavage of the substrate by the protease variant
Settings: temperature: 34 °C; time window: 0-4 h after rhamnose induction
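Also: Bxb1 expression induced with 0.2% (w/v) L-rhamnose at OD600 near 0.5, cultures sampled hourly, flipped fraction per protease–substrate barcode pair counted by paired-end Illumina sequencing.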

| Variant | area with substrate ENLYFCS | area with substrate ENLYFDS | area with substrate ENLYFES | area with substrate ENLYFFS | area with substrate ENLYFGS | area with substrate ENLYFHS | area with substrate ENLYFIS | area with substrate ENLYFKS | area with substrate ENLYFMS | area with substrate ENLYFNS | area with substrate ENLYFPS | area with substrate ENLYFRS | area with substrate ENLYFSS | area with substrate ENLYFTS | area with substrate ENLYFVS | area with substrate ENLYFWS | area with substrate ENLYFYS | area with substrate ENLYFLS |
| --- | --- | --- | --- | --- | --- | --- | --- | --- | --- | --- | --- | --- | --- | --- | --- | --- | --- | --- |
| MGESLFKGPRDYNPISSSICHLTNESDGHTTSLYGIGFGPFIITNKHLFRRNNGTLVVQSLHGVFKVKDTTTLQQHLVDGRDMIIIRMPKDFPPFPQKLKFREPQREERICYVTTNFQTKSMSSMVSDTSCTFPSGDGIFWKHWIQTKDGQCGSPLVSTRDGFIVGIHSASNFTNTNNYFTSVPKNFMELLTNQEAQQWVSGWRLNADSVLWGGHKVFMVKPEEPFQPVKEATQL [L112Y] | 0.0558 | 0.0671 | 0.0629 | 0.071 | 0.0631 | 0.0462 | 0.0531 | 0.0541 | 0.0625 | 0.0485 | 0.0567 | 0.0555 | 0.0641 | 0.0522 | 0.0588 | 0.0417 | 0.0684 |  |
| MGESLFKGPRDYNPISSSICHLTNESDGHTTSLYGIGFGPFIITNKHLFRRNNGTLVVQSLHGVFKVKDTTTLQQHLVDGRDMIIIRMPKDFPPFPQKLKFREPQREERICWVTTNFQTKSMSSMVSDTSCTFPSGDGIFWKHWIQTKDGQCGSPLVSTRDGFIVGIHSASNFTNTNNYFTSVPKNFMELLTNQEAQQWVSGWRLNADSVLWGGHKVFMVKPEEPFQPVKEATQL [L112W] | 0.0993 | 0.0557 | 0.077 | 0.0695 |  | 0.0581 | 0.0545 | 0.0521 | 0.0654 | 0.0509 | 0.0457 | 0.063 | 0.0581 |  |  | 0.0531 | 0.0566 | 0.0775 |
| MGESLFKGPRDYNPISSSICHLTNESDGHTTSLYGIGFGPFIITNKHLFRRNNGTLVVQSLHGVFKVKDTTTLQQHLVDGRDMIIIRMPKDFPPFPQKLKFREPQREERICLVTTNFQTKSMSSMVSDTSCTFPSNDGIFWKHWIQTKDGQCGSPLVSTRDGFIVGIHSASNFTNTNNYFTSVPKNFMELLTNQEAQQWVSGWRLNADSVLWGGHKVFMVKPEEPFQPVKEATQL [G136N] | 0.0537 | 0.0613 | 0.0648 | 0.0621 |  | 0.0568 | 0.0544 | 0.0601 | 0.0574 | 0.0581 |  | 0.0409 |  | 0.0698 | 0.0081 | 0.0592 |  | 0.056 |
| MGESLFKGPRDYNPISSSICHLTNESDGHTTSLYGIGFGPFIITNKHLFRRNNGTLVVQSLHGVFKVKDTTTLQQHLVDGRDMIIIRMPKDFPPFPQKLKFREPQREERICLVTTNFQTKSMSSMVSDTSCTFPSGDGIFWKHWIQTKDGQCGSPLVSTRDGFIVGIMSASNFTNTNNYFTSVPKNFMELLTNQEAQQWVSGWRLNADSVLWGGHKVFMVKPEEPFQPVKEATQL [H168M] | 0.0562 | 0.0598 | 0.0659 | 0.078 |  | 0.0511 | 0.0444 | 0.0636 | 0.0678 | 0.0584 | 0.0613 | 0.0452 | 0.0679 | 0.0576 |  |  | 0.0555 |  |
| MGESLFKGPRDYNPISSSICHLTNESDGHTTSLYGIGFGPFIITNKHLFRRNNGTLVVQSLHGVFKVKDTTTLQQHLVDGRDMIIIRMPKDFPPFPQKLKFREPQREERICLVTTNFQTKSMSSMVSDTSCTFPSGDGIFWKHWIQTKDGQCGSPLVSTVDGFIVGIHSASNFTNTNNYFTSVPKNFMELLTNQEAQQWVSGWRLNADSVLWGGHKVFMVKPEEPFQPVKEATQL [R160V] | 0.0543 |  | 0.0702 | 0.0497 | 0.0678 | 0.0546 | 0.0503 | 0.0577 | 0.0617 | 0.0813 | 0.0448 | 0.0696 |  | 0.0595 |  |  | 0.0444 |  |
| MGESLFKGPRDYNPISSSICHLTNESDGHTTSLYGIGFGPFIITNKHLFRRNNGTLVVQSLHGVFKVKDTTTLQQHLVDGRDMIIIRMPKDFPPFPQKLKFREPQREERICLVTTNFQTKSMSSMVSDTSCTFPSGDGIFWKHWIQTKDGQCGSPLVSTKDGFIVGIHSASNFTNTNNYFTSVPKNFMELLTNQEAQQWVSGWRLNADSVLWGGHKVFMVKPEEPFQPVKEATQL [R160K] | 0.0749 |  |  | 0.0628 |  | 0.0723 | 0.0572 |  | 0.0709 |  | 0.0305 |  |  | 0.0581 |  | 0.048 |  | 0.0623 |
| MGESLFKGPRDYNPISSSICHLTNESDGHTTSLYGIGFGPFIITNKHLFRRNNGTLVVQSLHGVFKVKDTTTLQQHLVDGRDMIIIRMPKDFPPFPQKLKFREPQREERICLVTTNFQTKSMSSMVSDTSCTFPSGDGIFWKHWIQTKDGQCGSPLVSTRDGFIVGIHSASNFTNDNNYFTSVPKNFMELLTNQEAQQWVSGWRLNADSVLWGGHKVFMVKPEEPFQPVKEATQL [T176D] | 0.0647 |  |  | 0.0666 |  | 0.0704 | 0.0665 | 0.057 | 0.0636 | 0.064 | 0.0648 |  | 0.0751 | 0.076 |  | 0.049 | 0.0563 |  |
| MGESLFKGPRDYNPISSSICHLTNESDGHTTSLYGIGFGPFIITNKHLFRRNNGTLVVQSLHGVFKVKDTTTLQQHLVDGRDMIIIRMPKDFPPFPQKLKFREPQREERICLVTTNFQTKSMSSMVSDTSCTFPSGDGIFWKHWIQTKMGQCGSPLVSTRDGFIVGIHSASNFTNTNNYFTSVPKNFMELLTNQEAQQWVSGWRLNADSVLWGGHKVFMVKPEEPFQPVKEATQL [D149M] | 0.042 |  | 0.0657 | 0.0535 | 0.0734 | 0.0629 | 0.0568 | 0.067 | 0.064 | 0.0533 | 0.0602 |  | 0.0342 |  | 0.0082 | 0.067 |  |  |
